The RNAGym collection of RNA variant scans (doi:10.1073/pnas.2313332121)
Variants at the background level are over-represented here.

B1: TPR 5TU (parent)
chain: GGAUCUUCUCGAUCUAACAAAAAAGACAAAUCUGCCACAAAGCUUGAGAGCAUCUUCGGAUGCAGAGGCGGCAGCCUUCGGUGGCGCGAUAGCGCCAACGUUCUCAACUAUGACACGCAAAACGCGUGCUCCGUUGAAUGGAGUUUAUCAUG

Variants of: B1
Assay: polymerase ribozyme fitness, log enrichment relative to wild type (log ratio); higher = more active; in vitro selection for triplet polymerase activity
Procedure, shortened: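 Input and output libraries were sequenced on Illumina after a single in vitro selection round, run in triplicate on PCR-built, transcribed mutant libraries of each subunit of a heterodimeric triplet polymerase ribozyme. Selection annealed libraries to a biotinylated primer, the partner subunit and triplets, incubated them frozen at −7 °C, then gel-excised extended constructs for streptavidin-bead capture and RT-PCR. Genotypes with ≥10 input reads and ≥1 read per output were kept. Fitness is the logarithm, taken in base 2, of genotype enrichment divided by wild-type enrichment, using inverse-variance-weighted replicate averages.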

Variant	polymerase ribozyme fitness (log ratio)
U45A C54U G92U G100C A110G G128U U151G	≤ -4.2
U45A G83A C87G G140C	≤ -4.2
G46C U55A C69G U82A C85G C108U	≤ -4.2
G46U A47C G71C A98U C105G	≤ -4.2
U45A G46A U55C A66G U77G U82A C103G U135C U145C	≤ -4.2
G46C C99G U101G C105G G124A	-2.54
G46A A52G C85A	-2.54
U45A G50A U55A G68U C85G C118A U135G	≤ -4.2
G46C G50U U61G A91G C99U C105A A107U C125A	≤ -4.2
U45A G68A C85G U90A G143U	≤ -4.2
U44G G84A G86C C123U G152U	≤ -4.2
G46A G67A C96U G128C U139C A147U	≤ -4.2
U45A U55G U56G C87U G92C	-3.98
G46A C85A G136U G140U A142G	≤ -4.2
U45A C96G A113C	≤ -4.2
U45A G92C U144A	-3.41
U45A C69A C95U C99G G112U C114U A147U	≤ -4.2
G46A C54G G86U G117A A119G A137G G141C G143U	≤ -4.2
U45A G50U G83U C87U C103U C105A	≤ -4.2
G46C G50C A89G A107C G152C	≤ -4.2
U45G U53A C75A C93A A113G	≤ -4.2
U45A A52C C57A	≤ -4.2
G46C A47C G62C G65A C93A A97U C149A	≤ -4.2
U45C A49C G70C G83C A137C U144C	≤ -4.2

Variant	polymerase ribozyme fitness (log ratio)
U45A G50U A106G	≤ -4.2
U45A G68U C85G U104G A137U A142C	≤ -4.2
G46A C76G A91U C95A G141C	≤ -4.2
U45G A73U G83U G126C U134G	≤ -4.2
U45A A49U	≤ -4.2
U45G C54A U55A C85G G133U	≤ -4.2
U45C G70C A91G C99U G136C	≤ -4.2
U45A C96A	-2.56
U44G G58C C75U G86A G94U C99A	≤ -4.2
G46U A47C G71C G92A C95G U151G	≤ -4.2
G46A U82A G83U C93U	≤ -4.2
G46A G62C U135A	≤ -4.2
U45C G58U U82C G84A	≤ -4.2
G46A G59A A106G A110U C129U G133C	≤ -4.2
G46C A47G G71A C85U G88C	≤ -4.2
U45A C79G G84A G92U C108G	≤ -4.2
G46A G65A G70U C75A G84A G86U G88U	≤ -4.2
G46C C75U G88A A106U C116G	≤ -4.2
U45G G86U C99A A119U A137C	≤ -4.2
G46A C129U	-3.61
U44G U134C	-4.1
U45G C85G	-3.44
G46A U53A U77A G80A C85A A98U U102C C132G A138G	≤ -4.2
U44G U45G C72G U144C A147G	≤ -4.2

Variant	polymerase ribozyme fitness (log ratio)
G46U A47U G71U C93U A120U	≤ -4.2
G46A A52G U53G G94C G141C	≤ -4.2
G46A C57G A73G G84A G128C C149U	≤ -4.2
U45G A49C C85A	≤ -4.2
U45A A52G U82G A115G G136U G141A U151G	≤ -4.2
G46C G83U G141U U148C	≤ -4.2
G46A C85A A150C	≤ -4.2
G46A G68C G83C A147U	≤ -4.2
U45G A52G U82C U101G C131U	-3.32
G46A C57A G80A G83U C87G G88U U90A A97U U101A U146G	≤ -4.2
U45A A49C C87A	≤ -4.2
G46A G50C U56A G83U A147C	≤ -4.2
U45G A66C C76G A91G	≤ -4.2
G46U C69G	-0.758
U45G A73G C76G A89U C93U C114G	≤ -4.2
U45A C54A G94C A110G G141U	≤ -4.2
U45G A64C U148G	≤ -4.2
U45A G50C U53A C54G G83C C114A U127G C131U U134G	≤ -4.2
U45G A47G C54U C93G	≤ -4.2
G46A G58U G81A G92A C99U	≤ -4.2
U45A C116U	-2.44
U45C C93A	-3.52
G46C C96A C123G	-1.48
G46U A66G C75G C93G	≤ -4.2

Variant	polymerase ribozyme fitness (log ratio)
U45A G58A G59C A60G G133A	≤ -4.2
U45G A49U A60U C85G C103U C116U A121U	≤ -4.2
G46A A52G A91U G112C U145G	≤ -4.2
G46C G74A U77C C93U	≤ -4.2
U45A G100C C118A	≤ -4.2
U45G G92A G152A	≤ -4.2
U45A C99G G124U	≤ -4.2
U45G G46U A47C G88C G133A	≤ -4.2
G46A C87U A89C G94A A113C	≤ -4.2
U45G G59C C99A U151G	≤ -4.2
U45G G92U C103A U104A	≤ -4.2
U45A A115C	≤ -4.2
U45C C114G G141C	≤ -4.2
G46A G50C U77C C95A A119G	≤ -4.2
U45A G65C A73G G84A A142G	≤ -4.2
U45A A47C U56C A107U U146C	≤ -4.2
U45A U82G G84U C87G C95A	≤ -4.2
G46A U82A G88C U90G	≤ -4.2
U45A G71A G94C	≤ -4.2
U45A A64C C93A	≤ -4.2
G46A C85G C87U A91G	≤ -4.2
U45A A47C C69G G80C G81A C85U G92A G143U	≤ -4.2
G46A G58C C87A U101G A121C U127A	≤ -4.2
U45A A121G C131G G140U	≤ -4.2

Variant	polymerase ribozyme fitness (log ratio)
U45A U61A U82A	≤ -4.2
U45C U56A A91G U111A	≤ -4.2
U45A U55G C87G G117A	≤ -4.2
G46C C85G C96U C116A C118A	≤ -4.2
U44G U61G A91C U102A U130G	≤ -4.2
G46A A97C C103G C123A G141C A147C C149A	≤ -4.2
U45A C54A C95A A113G C129A	≤ -4.2
U45A G83U C85G C95U	≤ -4.2
U44G G92U	≤ -4.2
G46A U53A G68A C87G G92U G143C	≤ -4.2
U45A C85A C93U C96U C118A C132A	≤ -4.2
U44G G59U G92C	≤ -4.2
U45G G68U	≤ -4.2
U45G G50A C93G C96U C114U A120U U135G	≤ -4.2
U45A C93U A147U	-2.81
U45A G92C A97G C99G U145G	≤ -4.2
G46A C76A C96U G141C	≤ -4.2
U44G U45G C54U C87A	≤ -4.2
U45A C54U C95G A107G	≤ -4.2
U45A U77G G83C U146A	≤ -4.2
U45G G83C G128U C132G A147C	≤ -4.2
G46A U77A G94A C105U G124A	≤ -4.2
U44G G80C C93A G94U	≤ -4.2
G46C A60G C85A C87A C105G C116G	≤ -4.2

Variant	polymerase ribozyme fitness (log ratio)
G46A C103G A122C U146A	≤ -4.2
U45A C75U U77G	≤ -4.2
G46A G74U C76A G80A	≤ -4.2
U45G G46A C75A G86U U144G	≤ -4.2
G46C C75U C105U	≤ -4.2
U45A C72U	≤ -4.2
G46C C54U G65U C93A A98G G117U G141C	≤ -4.2
G46A A49G A60G C85A C93U C103U C149G	≤ -4.2
G46A A52C C54G G83U	≤ -4.2
G46A G59A A60U G88A A138C	≤ -4.2
U45A A49C A52G U77G G94A U139A	≤ -4.2
U45G G88A	-4.02
U45A G92C U111A	≤ -4.2
U44G U55A G58C G140C	≤ -4.2
G46C C114U	-3.67
G46A G58U C93U C108A C114U G140U	≤ -4.2
U45A G92U U101G G136A	≤ -4.2
U45A A47C G58A C85U C95U C123A	≤ -4.2
U45A G83C C99U G112A U130A	≤ -4.2
U45A C79G A89U G92U G100A	≤ -4.2
G46A G67C U109G	≤ -4.2
U45C C57G G59U A66U G94A	≤ -4.2
G46A G50C C132U	≤ -4.2
U45A G86C C116U A147C	≤ -4.2

Variant	polymerase ribozyme fitness (log ratio)
G46C A49U C72U C116U	≤ -4.2
U45A A60C C93A	≤ -4.2
U45G A110G C118U G124A	≤ -4.2
G46C C57U G80A G81A	≤ -4.2
U45A A52G A64G C69G C75G A121U	≤ -4.2
U45G G59U A91U C93A U135A	≤ -4.2
G46C U61G U78A C93A	≤ -4.2
U45C C51G C63G A66U G68U A91G G100U C108G C116U	≤ -4.2
G46A G50A C57U A60G G68A G83A G94U G141C	≤ -4.2
G46A C69A A91C C118U U134C U139A	≤ -4.2
U45A G59C G70C C87U	≤ -4.2
G46A U61G G80U A122U A138C	≤ -4.2
G46A G59A A97G C149A	≤ -4.2
U45C A47G A49U C79G U90A C95G	≤ -4.2
U45A A49C C51G G74U G81A G133A	≤ -4.2
G46A G68C A89C G124A	≤ -4.2
U45A U77A C87U U90G G92C G126A A138G	≤ -4.2
U45G U55G A66C C85U G141C	≤ -4.2
G46A G86U U90G C93G U104A A106G U144A	≤ -4.2
U45A G48C G59U G62U G84A A91U A97U C108U C114A G136C	≤ -4.2
U45G C54U A110G	≤ -4.2
G46A G81A G136A U146A	0.373
U45C G62C A66C U82C C132A G140C	≤ -4.2
